In PubChem BioAssay (NCI):
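Method: 48-hour compound exposure of cells in 96-well plates, five concentrations, linear interpolation of endpoints. Definition used: TGI = concentration required for complete inhibition of growth.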 Certain results were filed several times, with different values. The list is limited to them. The source may hold further records. The tests behind the records often covered other concentration ranges, which the source does not state; a value can be the end of its range. *1 amine or outer side, *2 acyl side, *3 side chain or, on linkers, in order; H or OH if unused. Where a SMILES comes first, the peptide text is derived from it. Bridges are numbered along the chain shown (N, C = ends). Roman numbers before positions name the chains, in order. [ ]: non-standard residue; d: D form. Actinocin(1to9) = Cc1c2oc3c(C)ccc(C(=O)[*:2])c3nc-2c(C(=O)[*:1])c(N)c1=O; NMeV = CN[CH](C(=O)O)C(C)C; Sar = CNCC(=O)O

How the values were obtained:
Assay in all cases: inhibition of tumour cell growth, NCI panel, 48 h
K-562 leukemia = system: K-562 leukemia
SK-MEL-5 melanoma = system: SK-MEL-5 melanoma
UACC-62 melanoma = system: UACC-62 melanoma
NCI-H226 lung = system: NCI-H226 lung
NCI-H522 lung = system: NCI-H522 lung
SF-268 CNS = system: SF-268 CNS
DMS 114 small cell lung = system: DMS 114 small cell lung
MCF7 breast = system: MCF7 breast
EKVX NSCLC = system: EKVX NSCLC
OVCAR-5 ovarian = system: OVCAR-5 ovarian
CAKI-1 renal = system: CAKI-1 renal
MOLT-4 leukemia = system: MOLT-4 leukemia
CCRF-CEM leukemia = system: CCRF-CEM leukemia
IGROV1 ovarian = system: IGROV1 ovarian
TK-10 renal = system: TK-10 renal
SN12C renal = system: SN12C renal
HCC-2998 colon = system: HCC-2998 colon
RPMI-8226 leukemia = system: RPMI-8226 leukemia
A549 NSCLC = system: A549 NSCLC

Compound: O=C1NC(c2cccc3ccccc23)Nc2ccc(Cl)cc21 (centres undefined)
- TGI (K-562 leukemia): 1.45 nM and > 100 µM
- TGI (SK-MEL-5 melanoma): 34.5 nM and 432 nM
- TGI (UACC-62 melanoma): 2.9 nM and 51 µM
- TGI (NCI-H226 lung): 43 nM and 26.5 µM
- TGI (NCI-H522 lung): 7.51 nM and 1.32 µM

Compound: CC[C@@]1(O)C(=O)OCc2c1cc1n(c2=O)Cc2cc3cc(O)ccc3nc2-1
- TGI (SF-268 CNS): 61.1 nM [mean of 3 tests] and 3.2 µM [mean of 5 tests]
- TGI (DMS 114 small cell lung): 1.18 µM and 71.1 nM
- TGI (MCF7 breast): 3.55 µM and > 100 µM
- TGI (EKVX NSCLC): 1.05 µM and 29.2 µM
- TGI (OVCAR-5 ovarian): 240 nM and 8.86 µM
- TGI (CAKI-1 renal): 23.1 nM and 693 nM
- TGI (MOLT-4 leukemia): 23.7 nM and 1.06 µM
- TGI (CCRF-CEM leukemia): 10.9 nM and 1.37 µM

Compound: COc1ccc(CC2NC(=O)C(NC(=O)c3c4nc5c(C(=O)NC6C(=O)NC(Cc7ccc(OC)cc7)C(=O)N7CCCC7C(=O)N(C)CC(=O)N(C)C(C(C)C)C(=O)OC6C)ccc(C)c5oc-4c(C)c(=O)c3N)C(C)OC(=O)C(C(C)C)N(C)C(=O)CN(C)C(=O)C3CCCN3C2=O)cc1 (centres undefined) (I: TY(Me)P[Sar][NMeV] / II: TY(Me)P[Sar][NMeV]; ester I:1-I:C, II:1-II:C; linker I:N-II:N via Actinocin(1to9); configuration not given here)
- TGI (IGROV1 ovarian): 28.4 nM and 1.24 µM
- TGI (TK-10 renal): 2.55 µM and 84 nM
- TGI (SN12C renal): 365 nM and > 100 µM
- TGI (HCC-2998 colon): 1.03 µM and > 100 µM
- TGI (RPMI-8226 leukemia): < 1 nM and > 100 µM
- TGI (A549 NSCLC): 5.77 µM and > 100 µM
